{"source": "the supplement of paper PMC8728848", "binders": {"B1": {"name": "AAA (Anguilla anguilla), Q7SIC1 (protein)", "chain": "VIPEGYTQENVAVRGKATQSAQLRGEHAANSEASNAIDGNRDSNFYHGSCTHSSGQANPWWRVDLLQVYTITSVTITNRGDCCGERISGAEINIGQHLASNGVNNPECSVIGSMATGETKTFHCPAPMIGRYVVTYLPTSESLHLCEVEVNVDKPAAA"}}, "assay_in_all_cases": "glycan array binding signal (z-score within array); higher = stronger binding", "conditions_in_all_cases": "glycan notation: IUPAC condensed, linker removed", "key": {"[1]": {"target": "Gal(b1-4)GlcNAc(b1-3)Gal(b1-4)GlcNAc(b1-2)[Gal(b1-4)GlcNAc(b1-3)Gal(b1-4)GlcNAc(b1-6)]Man(a1-6)[Gal(b1-4)GlcNAc(b1-3)Gal(b1-4)GlcNAc(b1-2)Man(a1-3)]Man(b1-4)GlcNAc(b1-4)GlcNAc", "how_it_was_run": "(§1)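 Glycan array binding is given as a within-array Z-score, which can be read as non-binding when negative. The arrays, 3228 of them, came from the Consortium for Functional Glycomics database and were retained only where the protein sequence was available. Z-scores were averaged across arrays of the same protein sequence at different concentrations or buffers and across linkers.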"}, "[2]": {"target": "Gal(b1-4)GlcNAc(b1-3)Gal(b1-4)GlcNAc(b1-2)[Gal(b1-4)GlcNAc(b1-3)Gal(b1-4)GlcNAc(b1-6)]Man(a1-6)[Gal(b1-4)GlcNAc(b1-3)Gal(b1-4)GlcNAc(b1-2)Man(a1-3)]Man(b1-4)GlcNAc(b1-4)[Fuc(a1-6)]GlcNAc", "how_it_was_run": "as §1"}, "[3]": {"target": "Gal(b1-4)GlcNAc(b1-3)Gal(b1-4)GlcNAc(b1-3)Gal(b1-4)GlcNAc", "how_it_was_run": "as §1"}, "[4]": {"target": "Gal(b1-4)GlcNAc(b1-3)Gal(b1-4)GlcNAc(b1-3)Gal(b1-4)GlcNAc(b1-2)Man(a1-3)[Gal(b1-4)GlcNAc(b1-3)Gal(b1-4)GlcNAc(b1-3)Gal(b1-4)GlcNAc(b1-2)Man(a1-6)]Man(b1-4)GlcNAc(b1-4)GlcNAc", "how_it_was_run": "as §1"}, "[5]": {"target": "Gal(b1-4)GlcNAc(b1-3)Gal(b1-4)GlcNAc(b1-3)Gal(b1-4)GlcNAc(b1-2)Man(a1-3)[Gal(b1-4)GlcNAc(b1-3)Gal(b1-4)GlcNAc(b1-3)Gal(b1-4)GlcNAc(b1-2)Man(a1-6)]Man(b1-4)GlcNAc(b1-4)[Fuc(a1-6)]GlcNAc", "how_it_was_run": "as §1"}, "[6]": {"target": "Gal(b1-4)GlcNAc(b1-3)Gal(b1-4)GlcNAc(b1-3)Gal(b1-4)GlcNAc(b1-2)[Gal(b1-4)GlcNAc(b1-3)Gal(b1-4)GlcNAc(b1-3)Gal(b1-4)GlcNAc(b1-6)]Man(a1-6)[Gal(b1-4)GlcNAc(b1-3)Gal(b1-4)GlcNAc(b1-3)Gal(b1-4)GlcNAc(b1-2)Man(a1-3)]Man(b1-4)GlcNAc(b1-4)[Fuc(a1-6)]GlcNAc", "how_it_was_run": "as §1"}, "[7]": {"target": "Gal(b1-4)GlcNAc(b1-3)Gal(b1-4)GlcNAc(b1-3)Gal(b1-4)GlcNAc(b1-3)Gal(b1-4)GlcNAc(b1-2)Man(a1-3)[Gal(b1-4)GlcNAc(b1-3)Gal(b1-4)GlcNAc(b1-3)Gal(b1-4)GlcNAc(b1-3)Gal(b1-4)GlcNAc(b1-2)Man(a1-6)]Man(b1-4)GlcNAc(b1-4)GlcNAc", "how_it_was_run": "as §1"}, "[8]": {"target": "Gal(b1-4)GlcNAc(b1-3)Gal(b1-4)GlcNAc(b1-3)Gal(b1-4)GlcNAc(b1-3)Gal(b1-4)GlcNAc(b1-2)Man(a1-3)[Gal(b1-4)GlcNAc(b1-3)Gal(b1-4)GlcNAc(b1-3)Gal(b1-4)GlcNAc(b1-3)Gal(b1-4)GlcNAc(b1-2)Man(a1-6)]Man(b1-4)GlcNAc(b1-4)[Fuc(a1-6)]GlcNAc", "how_it_was_run": "as §1"}, "[9]": {"target": "Gal(b1-4)GlcNAc(b1-3)Gal(b1-4)GlcNAc(b1-3)Gal(b1-4)GlcNAc(b1-3)Gal(b1-4)GlcNAc(b1-2)[Gal(b1-4)GlcNAc(b1-3)Gal(b1-4)GlcNAc(b1-3)Gal(b1-4)GlcNAc(b1-3)Gal(b1-4)GlcNAc(b1-6)]Man(a1-6)[Gal(b1-4)GlcNAc(b1-3)Gal(b1-4)GlcNAc(b1-3)Gal(b1-4)GlcNAc(b1-3)Gal(b1-4)GlcNAc(b1-2)Man(a1-3)]Man(b1-4)GlcNAc(b1-4)[Fuc(a1-6)]GlcNAc", "how_it_was_run": "as §1"}, "[10]": {"target": "Gal(b1-4)GlcNAc(b1-3)Gal(b1-4)GlcNAc(b1-3)Gal(b1-4)GlcNAc(b1-3)Gal(b1-4)GlcNAc(b1-3)Gal(b1-4)GlcNAc(b1-2)Man(a1-3)[Gal(b1-4)GlcNAc(b1-3)Gal(b1-4)GlcNAc(b1-3)Gal(b1-4)GlcNAc(b1-3)Gal(b1-4)GlcNAc(b1-3)Gal(b1-4)GlcNAc(b1-2)Man(a1-6)]Man(b1-4)GlcNAc(b1-4)GlcNAc", "how_it_was_run": "as §1"}, "[11]": {"target": "Gal(b1-4)GlcNAc(b1-3)Gal(b1-4)GlcNAc(b1-3)Gal(b1-4)GlcNAc(b1-3)Gal(b1-4)GlcNAc(b1-3)Gal(b1-4)GlcNAc(b1-2)Man(a1-3)[Gal(b1-4)GlcNAc(b1-3)Gal(b1-4)GlcNAc(b1-3)Gal(b1-4)GlcNAc(b1-3)Gal(b1-4)GlcNAc(b1-3)Gal(b1-4)GlcNAc(b1-2)Man(a1-6)]Man(b1-4)GlcNAc(b1-4)[Fuc(a1-6)]GlcNAc", "how_it_was_run": "as §1"}, "[12]": {"target": "Gal(b1-4)GlcNAc(b1-3)Gal(b1-4)GlcNAc(b1-3)Gal(b1-4)GlcNAc(b1-3)Gal(b1-4)GlcNAc(b1-3)Gal(b1-4)GlcNAc(b1-2)[Gal(b1-4)GlcNAc(b1-3)Gal(b1-4)GlcNAc(b1-3)Gal(b1-4)GlcNAc(b1-3)Gal(b1-4)GlcNAc(b1-3)Gal(b1-4)GlcNAc(b1-6)]Man(a1-6)[Gal(b1-4)GlcNAc(b1-3)Gal(b1-4)GlcNAc(b1-3)Gal(b1-4)GlcNAc(b1-3)Gal(b1-4)GlcNAc(b1-3)Gal(b1-4)GlcNAc(b1-2)Man(a1-3)]Man(b1-4)GlcNAc(b1-4)[Fuc(a1-6)]GlcNAc", "how_it_was_run": "as §1"}, "[13]": {"target": "Gal(b1-4)GlcNAc(b1-3)Gal(b1-4)GlcNAc(b1-3)Gal(b1-4)GlcNAc(b1-3)Gal(b1-4)GlcNAc(b1-3)Gal(b1-4)GlcNAc(b1-3)Gal(b1-4)GlcNAc(b1-2)Man(a1-3)[Gal(b1-4)GlcNAc(b1-3)Gal(b1-4)GlcNAc(b1-3)Gal(b1-4)GlcNAc(b1-3)Gal(b1-4)GlcNAc(b1-3)Gal(b1-4)GlcNAc(b1-3)Gal(b1-4)GlcNAc(b1-2)Man(a1-6)]Man(b1-4)GlcNAc(b1-4)GlcNAc", "how_it_was_run": "as §1"}, "[14]": {"target": "Gal(b1-4)GlcNAc(b1-3)Gal(b1-4)GlcNAc(b1-3)GalNAc", "how_it_was_run": "as §1"}, "[15]": {"target": "Gal(b1-4)GlcNAc(b1-3)Gal(b1-4)GlcNAc(b1-3)[Gal(b1-4)GlcNAc(b1-3)Gal(b1-4)GlcNAc(b1-6)]GalNAc", "how_it_was_run": "as §1"}, "[16]": {"target": "Gal(b1-4)GlcNAc(b1-3)Gal(b1-4)GlcNAc(b1-6)[Gal(b1-3)]GalNAc", "how_it_was_run": "as §1"}, "[17]": {"target": "Gal(b1-4)GlcNAc(b1-3)Gal(b1-4)[Fuc(a1-3)]GlcNAc(b1-3)Gal(b1-4)[Fuc(a1-3)]GlcNAc", "how_it_was_run": "as §1"}, "[18]": {"target": "Gal(b1-4)GlcNAc(b1-3)GalNAc", "how_it_was_run": "as §1"}, "[19]": {"target": "Gal(b1-4)GlcNAc(b1-3)[Fuc(a1-3)GlcNAc(b1-6)]Gal(b1-4)Glc", "how_it_was_run": "as §1"}, "[20]": {"target": "Gal(b1-4)GlcNAc(b1-3)[Gal(b1-4)GlcNAc(b1-6)]Gal(b1-4)GlcNAc", "how_it_was_run": "as §1"}, "[21]": {"target": "Gal(b1-4)GlcNAc(b1-3)[Gal(b1-4)GlcNAc(b1-6)]GalNAc", "how_it_was_run": "as §1"}, "[22]": {"target": "Gal(b1-4)GlcNAc(b1-3)[GlcNAc(b1-6)]Gal(b1-4)GlcNAc", "how_it_was_run": "as §1"}, "[23]": {"target": "Gal(b1-4)GlcNAc(b1-6)Gal(b1-4)GlcNAc", "how_it_was_run": "as §1"}}, "note": "This is one part of the list."}
{"binder": "B1", "values": [{"measurement": "glycan array binding signal (z-score)", "setting": "[1]", "result": 0.103}, {"measurement": "glycan array binding signal (z-score)", "setting": "[2]", "result": -0.092}, {"measurement": "glycan array binding signal (z-score)", "setting": "[3]", "result": -0.301}, {"measurement": "glycan array binding signal (z-score)", "setting": "[4]", "result": 1.2}, {"measurement": "glycan array binding signal (z-score)", "setting": "[5]", "result": -0.065}, {"measurement": "glycan array binding signal (z-score)", "setting": "[6]", "result": -0.088}, {"measurement": "glycan array binding signal (z-score)", "setting": "[7]", "result": -0.104}, {"measurement": "glycan array binding signal (z-score)", "setting": "[8]", "result": 0.031}, {"measurement": "glycan array binding signal (z-score)", "setting": "[9]", "result": -0.123}, {"measurement": "glycan array binding signal (z-score)", "setting": "[10]", "result": -0.047}, {"measurement": "glycan array binding signal (z-score)", "setting": "[11]", "result": -0.123}, {"measurement": "glycan array binding signal (z-score)", "setting": "[12]", "result": -0.032}, {"measurement": "glycan array binding signal (z-score)", "setting": "[13]", "result": -0.1}, {"measurement": "glycan array binding signal (z-score)", "setting": "[14]", "result": 1.02}, {"measurement": "glycan array binding signal (z-score)", "setting": "[15]", "result": 1.43}, {"measurement": "glycan array binding signal (z-score)", "setting": "[16]", "result": 0.717}, {"measurement": "glycan array binding signal (z-score)", "setting": "[17]", "result": -0.016}, {"measurement": "glycan array binding signal (z-score)", "setting": "[18]", "result": -0.168}, {"measurement": "glycan array binding signal (z-score)", "setting": "[19]", "result": 0.148}, {"measurement": "glycan array binding signal (z-score)", "setting": "[20]", "result": -0.163}, {"measurement": "glycan array binding signal (z-score)", "setting": "[21]", "result": 0.003}, {"measurement": "glycan array binding signal (z-score)", "setting": "[22]", "result": -0.102}, {"measurement": "glycan array binding signal (z-score)", "setting": "[23]", "result": -0.313}]}
